# Some of the results follow.
# Tests used:
# Test in all cases: glycan array binding signal (z-score within array); higher = stronger binding
# Conditions in all cases: glycan notation: IUPAC condensed, linker removed
# Gal6S(b1-4)Glc6S = target: Gal6S(b1-4)Glc6S
# Summary of the method: (§1)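 The binding signal is a Z-score computed within each array and averaged over linkers. Arrays of the same protein sequence at different concentrations or buffers were also averaged together. Data originate from 3228 arrays in the Consortium for Functional Glycomics database, kept only where the protein sequence was available.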
# Gal6S(b1-4)GlcNAc = target: Gal6S(b1-4)GlcNAc
# Summary of the method: as §1
# Gal6S(b1-4)GlcNAc6S = target: Gal6S(b1-4)GlcNAc6S
# Summary of the method: as §1
# GalNAc(a1-3)Gal = target: GalNAc(a1-3)Gal
# Summary of the method: as §1
# GalNAc(a1-3)GalNAc = target: GalNAc(a1-3)GalNAc
# Summary of the method: as §1
# [1] = target: GalNAc(a1-3)GalNAc(b1-3)Gal(a1-4)Gal(b1-4)Glc
# Summary of the method: as §1
# [2] = target: GalNAc(a1-3)GalNAc(b1-3)Gal(a1-4)Gal(b1-4)GlcNAc
# Summary of the method: as §1
# GalNAc(b1-3)Gal = target: GalNAc(b1-3)Gal
# Summary of the method: as §1
# [3] = target: GalNAc(b1-3)Gal(a1-4)Gal(b1-4)GlcNAc
# Summary of the method: as §1
# [4] = target: GalNAc(b1-3)Gal(a1-4)Gal(b1-4)GlcNAc(b1-3)Gal(b1-4)Glc
# Summary of the method: as §1
# [5] = target: GalNAc(b1-3)Gal(a1-6)Gal(b1-4)Glc
# Summary of the method: as §1
# GalNAc(b1-3)GalNAc = target: GalNAc(b1-3)GalNAc
# Summary of the method: as §1
# GalNAc(b1-3)GlcNAc = target: GalNAc(b1-3)GlcNAc
# Summary of the method: as §1
# GalNAc(b1-4)Gal(b1-4)Glc = target: GalNAc(b1-4)Gal(b1-4)Glc
# Summary of the method: as §1
# GalNAc(b1-4)GlcNAc = target: GalNAc(b1-4)GlcNAc
# Summary of the method: as §1
# [6] = target: GalNAc(b1-4)GlcNAc(b1-2)Man
# Summary of the method: as §1
# [7] = target: GalNAc(b1-4)GlcNAc(b1-2)Man(a1-3)[GalNAc(b1-4)GlcNAc(b1-2)Man(a1-6)]Man(b1-4)GlcNAc(b1-4)GlcNAc
# Summary of the method: as §1
# [8] = target: GalNAc(b1-4)GlcNAc(b1-3)GalNAc(b1-4)GlcNAc
# Summary of the method: as §1
# GalNAc(b1-4)GlcNAc6S = target: GalNAc(b1-4)GlcNAc6S
# Summary of the method: as §1
# GalNAc(b1-6)GalNAc = target: GalNAc(b1-6)GalNAc
# Summary of the method: as §1
# GalNAc3S(b1-4)GlcNAc = target: GalNAc3S(b1-4)GlcNAc
# Summary of the method: as §1
# GalNAc3S(b1-4)GlcNAc3S = target: GalNAc3S(b1-4)GlcNAc3S
# Summary of the method: as §1
# [9] = target: GalNAc3S(b1-4)[Fuc(a1-3)]GlcNAc
# Summary of the method: as §1
# GalNAc4S6S(b1-4)GlcNAc = target: GalNAc4S6S(b1-4)GlcNAc
# Summary of the method: as §1
# GalNAc6S(b1-4)GlcNAc = target: GalNAc6S(b1-4)GlcNAc
# Summary of the method: as §1
# Glc(a1-4)Glc = target: Glc(a1-4)Glc
# Summary of the method: as §1
# [10] = target: Glc(a1-4)Glc(a1-4)Glc(a1-4)Glc
# Summary of the method: as §1
# Glc(a1-6)Glc(a1-6)Glc = target: Glc(a1-6)Glc(a1-6)Glc
# Summary of the method: as §1
# [11] = target: Glc(a1-6)Glc(a1-6)Glc(a1-6)Glc
# Summary of the method: as §1
# Glc(b1-4)Glc = target: Glc(b1-4)Glc
# Summary of the method: as §1
# Glc(b1-6)Glc = target: Glc(b1-6)Glc
# Summary of the method: as §1
# GlcA(b1-3)Gal = target: GlcA(b1-3)Gal
# Summary of the method: as §1
# GlcA(b1-3)GlcNAc = target: GlcA(b1-3)GlcNAc
# Summary of the method: as §1
# GlcA(b1-6)Gal = target: GlcA(b1-6)Gal
# Summary of the method: as §1
# [12] = target: GlcA3S(b1-3)Gal(b1-4)GlcNAc(b1-2)Man
# Summary of the method: as §1
# [13] = target: GlcA3S(b1-3)Gal(b1-4)GlcNAc(b1-3)Gal(b1-4)Glc
# Summary of the method: as §1
# [14] = target: GlcNAc(a1-3)Gal(b1-4)GlcNAc
# Summary of the method: as §1
binder,measurement,setting,value
diCBM40 CPF071 (Clostridium perfringens) (protein) MAHHHHHHVGTGSNDDDDKSPDPMLSSLGEYKDINLESSNASNITYDLEKYKNLDEGTIVVRFNSKDSKIQSLLGISNSKTKNGYFNFYVTNSRVGFELRNQKNEGNTQNGTENLVHMYKDVALNDGDNTVALKIEKNKGYKLFLNGKMIKEVKDTNTKFLNNIENLDSAFIGKTNRYGQSNEYNFKGNIGFMNIYNEPLGDDYLLSKTGETKALNGSELGSGSGLSSLGEYKDINLESSNASNITYDLEKYKNLDEGTIVVRFNSKDSKIQSLLGISNSKTKNGYFNFYVTNSRVGFELRNQKNEGNTQNGTENLVHMYKDVALNDGDNTVALKIEKNKGYKLFLNGKMIKEVKDTNTKFLNNIENLDSAFIGKTNRYGQSNEYNFKGNIGFMNIYNEPLGDDYLLSKTGETK,glycan array binding signal (z-score),Gal6S(b1-4)Glc6S,-0.229
same,glycan array binding signal (z-score),Gal6S(b1-4)GlcNAc,-0.279
same,glycan array binding signal (z-score),Gal6S(b1-4)GlcNAc6S,-0.287
same,glycan array binding signal (z-score),GalNAc(a1-3)Gal,-0.259
same,glycan array binding signal (z-score),GalNAc(a1-3)GalNAc,-0.216
same,glycan array binding signal (z-score),[1],-0.324
same,glycan array binding signal (z-score),[2],-0.334
same,glycan array binding signal (z-score),GalNAc(b1-3)Gal,-0.227
same,glycan array binding signal (z-score),[3],-0.317
same,glycan array binding signal (z-score),[4],-0.306
same,glycan array binding signal (z-score),[5],-0.235
same,glycan array binding signal (z-score),GalNAc(b1-3)GalNAc,-0.314
same,glycan array binding signal (z-score),GalNAc(b1-3)GlcNAc,-0.339
same,glycan array binding signal (z-score),GalNAc(b1-4)Gal(b1-4)Glc,-0.314
same,glycan array binding signal (z-score),GalNAc(b1-4)GlcNAc,-0.232
same,glycan array binding signal (z-score),[6],-0.206
same,glycan array binding signal (z-score),[7],-0.337
same,glycan array binding signal (z-score),[8],-0.173
same,glycan array binding signal (z-score),GalNAc(b1-4)GlcNAc6S,-0.227
same,glycan array binding signal (z-score),GalNAc(b1-6)GalNAc,-0.244
same,glycan array binding signal (z-score),GalNAc3S(b1-4)GlcNAc,-0.307
same,glycan array binding signal (z-score),GalNAc3S(b1-4)GlcNAc3S,-0.256
same,glycan array binding signal (z-score),[9],-0.102
same,glycan array binding signal (z-score),GalNAc4S6S(b1-4)GlcNAc,-0.325
same,glycan array binding signal (z-score),GalNAc6S(b1-4)GlcNAc,-0.29
same,glycan array binding signal (z-score),Glc(a1-4)Glc,-0.311
same,glycan array binding signal (z-score),[10],-0.275
same,glycan array binding signal (z-score),Glc(a1-6)Glc(a1-6)Glc,-0.269
same,glycan array binding signal (z-score),[11],-0.24
same,glycan array binding signal (z-score),Glc(b1-4)Glc,-0.347
same,glycan array binding signal (z-score),Glc(b1-6)Glc,-0.32
same,glycan array binding signal (z-score),GlcA(b1-3)Gal,-0.313
same,glycan array binding signal (z-score),GlcA(b1-3)GlcNAc,-0.322
same,glycan array binding signal (z-score),GlcA(b1-6)Gal,-0.12
same,glycan array binding signal (z-score),[12],-0.33
same,glycan array binding signal (z-score),[13],-0.304
same,glycan array binding signal (z-score),[14],-0.342

# Reference: the supplement of paper PMC8728848
